The source gives no read counts; variants with many changes may rest on few reads.
B1: LINE1-full (parent)
chain: UACGUAGGUGGUUUUCCCCUGAUAGUGCUAAGGGGGCCUGGAAGUUUGGACUGGGCAGAGCUCAACACAGCGUGGCAAAGUGGCUGUGGCUAGACUGCCUCUCUGGAUUCCUCGUCACUCAGCAGGGCAUCUCUGAGAGAAAUGCC

Variants of: B1
Test: self-cleavage, relative activity (ratio to wild type); higher = more cleavage; in vitro, sequencing; the parent is a self-cleaving ribozyme

With A78G A140G A142G as the variant, how does the self-cleavage read?
The self-cleavage was 0.56.

Which self-cleavage does the source give for C38U A64G U130C here?
Its self-cleavage is 0.16.

Which self-cleavage does the source give for U9C A30U U62C A129U A138G A141G here?
The self-cleavage was 0.25.

With A43G C51U A142G as the variant, how does the self-cleavage read?
Its self-cleavage is 1.31.

Which self-cleavage does the source give for U12C U20C U23A A24U U39C G58A C116U here?
The self-cleavage was 0.12.

Which self-cleavage does the source give for U46C A94G U102A A141G here?
The self-cleavage was 0.13.

Which self-cleavage does the source give for A6G U14C U96C here?
Its self-cleavage is 0.

With U52C A129G A141G as the variant, how does the self-cleavage read?
The self-cleavage was 1.11.

For A2G U73A U100C, which self-cleavage is on record?
The self-cleavage was 1.63.

For A69C A78G C111A U119C A136G, which self-cleavage is on record?
Its self-cleavage is 0.

Which self-cleavage does the source give for A43G A124G U134C here?
Its self-cleavage is 0.4.

For A22G U39A A142G, which self-cleavage is on record?
The self-cleavage was 0.84.

For U14C U15C U20C A64G U81G, which self-cleavage is on record?
The self-cleavage was 0.

With U47A U62A C101U as the variant, how does the self-cleavage read?
The self-cleavage was 0.01.

For U5C A136G A142G, which self-cleavage is on record?
Its self-cleavage is 1.28.

For U12A C38A A43G, which self-cleavage is on record?
The self-cleavage was 0.83.

With U20C G35A A79G as the variant, how does the self-cleavage read?
Its self-cleavage is 1.4.

With U14A G34U A65G A78G C118U as the variant, how does the self-cleavage read?
Its self-cleavage is 0.05.

For G72A A77G U109C, which self-cleavage is on record?
Its self-cleavage is 1.79.

With G4C A79U U108C as the variant, how does the self-cleavage read?
Its self-cleavage is 1.84.

With U12A U15A U23C U26A A69G as the variant, how does the self-cleavage read?
The self-cleavage was 0.44.

With G25A A94G A124G U130C U134A as the variant, how does the self-cleavage read?
The self-cleavage was 0.

With U52C G58U A67U as the variant, how does the self-cleavage read?
Its self-cleavage is 0.04.

Which self-cleavage does the source give for U14C U29C U81A A136U U143G here?
Its self-cleavage is 2.63.

With G8A A43G U45C A141U as the variant, how does the self-cleavage read?
Its self-cleavage is 1.1.

With U47A A57G A136G as the variant, how does the self-cleavage read?
The self-cleavage was 1.1.

With U5C G32A U46C as the variant, how does the self-cleavage read?
Its self-cleavage is 0.7.

Which self-cleavage does the source give for U5A U20A G35A A77U A140G here?
The self-cleavage was 0.88.

For U12A U52C U143A, which self-cleavage is on record?
Its self-cleavage is 1.26.

For U87A U134C U143C, which self-cleavage is on record?
The self-cleavage was 0.14.

For C3A G32A A69U A79C, which self-cleavage is on record?
Its self-cleavage is 0.09.

For U12G G44U U115C, which self-cleavage is on record?
Its self-cleavage is 0.77.

Which self-cleavage does the source give for U52A A59G U115C here?
The self-cleavage was 0.97.

For U81C G122A A141G, which self-cleavage is on record?
Its self-cleavage is 1.14.

For A79C G97A A107G, which self-cleavage is on record?
Its self-cleavage is 0.

Which self-cleavage does the source give for U104C A121U A129C here?
Its self-cleavage is 0.

Which self-cleavage does the source give for U81A U115C C123U A138G here?
The self-cleavage was 2.44.

Which self-cleavage does the source give for A31C A67G U96A here?
Its self-cleavage is 0.14.

With U102C U108C U119C as the variant, how does the self-cleavage read?
The self-cleavage was 1.97.

Which self-cleavage does the source give for U15C A124U A129G here?
Its self-cleavage is 1.23.

For A77U A79U U132A, which self-cleavage is on record?
Its self-cleavage is 2.31.

For U73A U130C U132C, which self-cleavage is on record?
The self-cleavage was 1.63.

Which self-cleavage does the source give for U14C U23C G86A C116U here?
Its self-cleavage is 0.11.

For U5A U12C A30G A94U A121U A142G, which self-cleavage is on record?
The self-cleavage was 0.67.

Which self-cleavage does the source give for U39C A42G U62A U104A U119A here?
The self-cleavage was 0.24.

With C68U U73A A79G U100C A141G as the variant, how does the self-cleavage read?
Its self-cleavage is 0.44.

With A6U U14C A59G A64G A140G as the variant, how does the self-cleavage read?
The self-cleavage was 0.5.

With U20C U45C G88A A94G as the variant, how does the self-cleavage read?
Its self-cleavage is 0.09.

For U85C U100C A138G A141G, which self-cleavage is on record?
The self-cleavage was 0.

For U45A U100C A124G U134G, which self-cleavage is on record?
Its self-cleavage is 2.45.

For A57G A69G A79G U132C, which self-cleavage is on record?
Its self-cleavage is 0.

For C76U C111U A140G, which self-cleavage is on record?
Its self-cleavage is 2.68.

For U1A U81A U102C, which self-cleavage is on record?
Its self-cleavage is 2.32.

Which self-cleavage does the source give for A6G A43G U130C A140U here?
Its self-cleavage is 1.53.

Which self-cleavage does the source give for U39C A121G A140G A141G here?
Its self-cleavage is 1.53.

Which self-cleavage does the source give for U12C U26C U132A here?
Its self-cleavage is 1.02.

For G41A A57U U73A A77U A107U, which self-cleavage is on record?
The self-cleavage was 0.04.

For C17U U23C A31C A140G, which self-cleavage is on record?
The self-cleavage was 1.09.

For U96C U100A U102C, which self-cleavage is on record?
Its self-cleavage is 0.95.

For A64U U115C A140G A142G, which self-cleavage is on record?
Its self-cleavage is 0.68.

With U1C U39A U100C as the variant, how does the self-cleavage read?
The self-cleavage was 0.83.

Which self-cleavage does the source give for A79G C90A U104C here?
The self-cleavage was 0.02.

Which self-cleavage does the source give for A50G A117U A142G here?
The self-cleavage was 0.64.

For G82A U115A G126A U132C, which self-cleavage is on record?
Its self-cleavage is 2.56.

With A31U A42U G72A as the variant, how does the self-cleavage read?
Its self-cleavage is 1.12.

For C61A A69G A79G U130C, which self-cleavage is on record?
Its self-cleavage is 0.

For C3U A69G A142G, which self-cleavage is on record?
The self-cleavage was 1.09.

With U39C U96A U102A as the variant, how does the self-cleavage read?
Its self-cleavage is 0.06.

With U9G U39C G74A U108C as the variant, how does the self-cleavage read?
The self-cleavage was 0.3.

With C63U U73A U119C A140G as the variant, how does the self-cleavage read?
The self-cleavage was 0.31.

Which self-cleavage does the source give for G21A U100A A138C here?
The self-cleavage was 0.64.

For G53A A57G U73C A138G U143C, which self-cleavage is on record?
Its self-cleavage is 1.08.

Which self-cleavage does the source give for A2U A59U U73C A121G U143C here?
The self-cleavage was 0.61.

Which self-cleavage does the source give for U13A U14C U26C G34A A43G U87A U134C A136G here?
Its self-cleavage is 0.18.

For G40U A42G U45C A136G, which self-cleavage is on record?
Its self-cleavage is 0.99.

For U52A U109A U115A, which self-cleavage is on record?
Its self-cleavage is 1.29.

With C19U A77G U85A as the variant, how does the self-cleavage read?
The self-cleavage was 0.1.

Which self-cleavage does the source give for A42G U73A G114A here?
Its self-cleavage is 1.02.

For U12C U52A A129U U132C, which self-cleavage is on record?
Its self-cleavage is 1.95.

Which self-cleavage does the source give for A69G C111A U119A U130C here?
The self-cleavage was 0.18.

With U23C U81A U143A as the variant, how does the self-cleavage read?
Its self-cleavage is 1.72.

For A43G A129U U130C, which self-cleavage is on record?
Its self-cleavage is 1.09.

With U12C U39A A59U C63U as the variant, how does the self-cleavage read?
The self-cleavage was 0.22.

Reference: the RNAGym collection of RNA variant scans (doi:10.7554/elife.90254)
